# Experimental data published in the supplement of paper PMC7826260.
# Some of the results follow. Cleavage of a single-stranded DNA pool by Rep nickase domains was read by sequencing (3 µM enzyme, 1 h, 37 °C); shown is the middle of each 90-letter strand. Uncut reads are compared with the no-enzyme pool on a log2 scale; strong cutting gives strongly negative numbers. There is no active / inactive call. Shares of all reads are compared; where an enzyme cuts many sequences, the uncut ones exceed 0.
# Columns and labels:
# Assay in all cases: uncleaved DNA left, log2 of reads against the no-enzyme library (log2 ratio); higher = less cleavage (more negative = more Rep cleavage of the k-mer); sequences stand for … in CTCGTCCG…ACCGGAGA
# [1] = system: T1, Rep nickase domain of Muscovy duck circovirus
# T1 sequence (Rep 1-111, printed without the tag): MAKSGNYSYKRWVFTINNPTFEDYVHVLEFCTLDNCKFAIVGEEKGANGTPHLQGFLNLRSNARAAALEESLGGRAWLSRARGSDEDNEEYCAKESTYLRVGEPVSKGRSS
# Procedure: (§1)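 A pool of 90-nt single-stranded DNAs with seven random bases just before the constant AC of the nick site (name = the seven bases) was cut by 3 µM recombinant His6-SUMO-tagged Rep nickase domain (300 nM DNA, 50 mM HEPES pH 8.0, 50 mM NaCl, 1 mM MnCl2, 1 h, 37 °C, three replicates). Uncut DNA was amplified and sequenced.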
# [2] = system: T2, Rep nickase domain of banana bunchy top virus
# T2 sequence (Rep 1-94, printed without the tag): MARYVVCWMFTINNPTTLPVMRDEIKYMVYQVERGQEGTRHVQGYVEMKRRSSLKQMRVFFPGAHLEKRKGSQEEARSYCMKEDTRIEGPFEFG
# Procedure: as §1
# [3] = system: T3, Rep nickase domain of cabbage leaf curl virus
# T3 sequence (Rep 1-116, printed without the tag): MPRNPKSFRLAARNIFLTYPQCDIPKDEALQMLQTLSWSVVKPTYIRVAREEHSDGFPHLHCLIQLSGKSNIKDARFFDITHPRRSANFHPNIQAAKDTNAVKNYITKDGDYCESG
# Procedure: as §1
# [4] = system: T4, Rep nickase domain of chickpea chlorotic dwarf virus
# T4 sequence (Rep 1-124, printed without the tag): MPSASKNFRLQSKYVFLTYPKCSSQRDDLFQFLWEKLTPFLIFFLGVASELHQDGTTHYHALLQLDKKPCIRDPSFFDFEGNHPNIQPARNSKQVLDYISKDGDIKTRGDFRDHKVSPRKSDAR
# Procedure: as §1
# [5] = system: T5, Rep nickase domain of faba bean necrotic yellows virus
# T5 sequence (Rep 1-98, printed without the tag): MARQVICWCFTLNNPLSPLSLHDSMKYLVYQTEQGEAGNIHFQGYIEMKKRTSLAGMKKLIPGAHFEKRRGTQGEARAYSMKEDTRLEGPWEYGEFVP
# Procedure: as §1
# [6] = system: T6, Rep nickase domain of maize striate mosaic virus
# T6 sequence (Rep 1-117, printed without the tag): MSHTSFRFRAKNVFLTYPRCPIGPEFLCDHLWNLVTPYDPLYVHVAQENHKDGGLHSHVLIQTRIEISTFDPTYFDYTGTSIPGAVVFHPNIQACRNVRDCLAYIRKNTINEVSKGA
# Procedure: as §1
# [7] = system: T7, Rep nickase domain of porcine circovirus 2
# T7 sequence (Rep 2-116, printed without the tag): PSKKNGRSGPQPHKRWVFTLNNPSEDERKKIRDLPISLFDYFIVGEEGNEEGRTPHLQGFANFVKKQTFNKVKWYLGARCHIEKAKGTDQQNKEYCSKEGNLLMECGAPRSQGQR
# Procedure: as §1
# [8] = system: T8, Rep nickase domain of tomato yellow leaf curl virus
# T8 sequence (Rep 1-136, printed without the tag): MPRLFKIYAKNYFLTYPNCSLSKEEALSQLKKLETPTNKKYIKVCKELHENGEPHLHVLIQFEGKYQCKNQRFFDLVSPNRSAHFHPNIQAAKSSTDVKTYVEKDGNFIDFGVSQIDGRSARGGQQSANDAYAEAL
# Procedure: as §1
# [9] = system: T9, Rep nickase domain of wheat dwarf virus
# T9 sequence (Rep 1-137, printed without the tag): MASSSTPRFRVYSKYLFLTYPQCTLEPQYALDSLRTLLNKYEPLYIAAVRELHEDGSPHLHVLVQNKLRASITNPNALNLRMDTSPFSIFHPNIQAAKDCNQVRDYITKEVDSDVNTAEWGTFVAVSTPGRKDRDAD
# Procedure: as §1
Sequence,uncleaved DNA left (log2) [1],uncleaved DNA left (log2) [2],uncleaved DNA left (log2) [3],uncleaved DNA left (log2) [4],uncleaved DNA left (log2) [5],uncleaved DNA left (log2) [6],uncleaved DNA left (log2) [7],uncleaved DNA left (log2) [8],uncleaved DNA left (log2) [9]
ATCTTGA,0.0737,0.0233,-0.258,-0.263,0.0689,-1.07,0.0475,-0.0478,0.0653
GGTAAGC,0.0146,0.0335,0.675,1.51,0.0364,1.75,0.18,0.045,-0.00525
ATTTCCT,-0.974,-0.568,-0.157,-2.56,-0.0808,-0.629,-1.95,-0.00988,0.0167
CCGTTCA,0.0222,-0.0354,0.359,-0.0974,-0.132,0.142,-0.0651,-0.0456,-0.112
GGTACTC,0.0315,0.079,0.679,1.59,-0.0777,2.06,0.208,0.0645,0.0718
ATACGCA,0.117,-0.00335,-0.317,-0.949,0.0273,-0.933,0.0341,0.0255,-0.0416
CTGGTCA,-0.048,-0.0119,0.0775,-0.398,-0.087,-0.288,-0.0203,0.1,-0.0592
TCAACCA,-0.204,-0.0613,-0.0652,-2.31,-0.101,-0.342,-0.806,-0.0683,-0.0126
AGCTTCC,-0.0825,-0.00595,0.124,0.302,-0.0966,0.121,-0.731,-0.034,0.0551
TTGGGAG,0.125,0.0243,-0.259,-0.176,0.0592,-0.652,0.104,-0.00344,-1.82e-05
GTGCAGT,0.0815,0.00783,0.145,0.817,-0.205,0.333,0.00969,0.0903,-0.0992
TGACATC,0.0792,0.00495,0.632,1.55,-0.0502,1.81,0.0617,-0.00141,0.171
CCTGCTT,0.0328,-0.104,-0.201,-1.79,-0.00447,-0.684,-0.437,-0.0488,-0.233
CAGGGAG,0.106,0.168,-0.341,-0.076,0.18,-0.605,0.211,0.0827,0.0647
CACACCG,-0.124,-0.0235,-0.774,-0.0515,-0.0112,-0.622,0.169,0.0344,-0.0382
CTTCCAC,0.213,-0.0899,-0.0383,-0.523,0.0401,-0.675,-0.0914,0.0276,0.0702
ATTTCCG,0.108,0.0233,-0.859,-0.121,0.0391,-0.966,0.287,-0.111,-0.0198
CGCTCCC,0.00298,-0.0109,0.109,0.0121,0.11,0.238,-0.0449,-0.0261,-0.00499
CAGCAGT,0.222,-0.0425,-0.348,-0.788,0.0675,-0.912,-2.59,0.136,0.0175
TCAGCAG,-0.0224,-0.101,-0.606,-0.733,-0.0529,-1.14,0.167,-0.0413,-0.0519
ACGCTAA,0.0389,0.0673,-0.0808,-0.316,0.0231,-0.464,0.116,-0.0536,-0.0617
CCGAGAT,0.136,0.125,0.549,1.24,0.0843,1.61,0.173,-0.0783,-0.0313
ATTCCCA,-0.834,-0.0943,0.0916,-1.01,0.0616,-0.326,-2.85,0.135,0.123
TTAACCA,-0.152,-0.0446,-0.242,-1.72,-0.0618,-0.079,-0.613,-0.0351,0.018
GGGCTTC,0.00894,0.0426,0.745,1.78,0.0413,2.15,0.0996,-0.0187,0.0761
TCTAGCT,0.0228,-0.00911,-0.279,-1.32,-0.0276,-0.92,0.0464,-0.0124,-0.12
GGCCAGC,0.0162,0.125,0.613,1.42,0.0558,1.86,0.178,0.126,0.0598
CACCTCA,-0.0948,0.0271,-0.125,-1.97,0.0312,-0.408,-0.174,-0.0213,0.0605
ACGTATA,-0.0522,0.0232,-0.187,-1.36,-0.0618,-0.424,-0.181,-0.182,-0.0662
GGGCCGT,0.057,0.0327,0.78,1.78,-0.0883,2.21,0.128,0.0243,0.078
